{"source": "paper PMC4336329", "about": "(PLoS ONE, 2015)", "note": "Among all 310,000 compounds or so, about 2,200 (0.71%) showed an effect of 50% or more. Effects have a minus sign here. This is one part of the list.", "data": [{"biological_target": "human ether-à-go-go-related gene (hERG) potassium channel (human, UniProt Q12809)", "sequence (Q12809 whole entry, looked up)": "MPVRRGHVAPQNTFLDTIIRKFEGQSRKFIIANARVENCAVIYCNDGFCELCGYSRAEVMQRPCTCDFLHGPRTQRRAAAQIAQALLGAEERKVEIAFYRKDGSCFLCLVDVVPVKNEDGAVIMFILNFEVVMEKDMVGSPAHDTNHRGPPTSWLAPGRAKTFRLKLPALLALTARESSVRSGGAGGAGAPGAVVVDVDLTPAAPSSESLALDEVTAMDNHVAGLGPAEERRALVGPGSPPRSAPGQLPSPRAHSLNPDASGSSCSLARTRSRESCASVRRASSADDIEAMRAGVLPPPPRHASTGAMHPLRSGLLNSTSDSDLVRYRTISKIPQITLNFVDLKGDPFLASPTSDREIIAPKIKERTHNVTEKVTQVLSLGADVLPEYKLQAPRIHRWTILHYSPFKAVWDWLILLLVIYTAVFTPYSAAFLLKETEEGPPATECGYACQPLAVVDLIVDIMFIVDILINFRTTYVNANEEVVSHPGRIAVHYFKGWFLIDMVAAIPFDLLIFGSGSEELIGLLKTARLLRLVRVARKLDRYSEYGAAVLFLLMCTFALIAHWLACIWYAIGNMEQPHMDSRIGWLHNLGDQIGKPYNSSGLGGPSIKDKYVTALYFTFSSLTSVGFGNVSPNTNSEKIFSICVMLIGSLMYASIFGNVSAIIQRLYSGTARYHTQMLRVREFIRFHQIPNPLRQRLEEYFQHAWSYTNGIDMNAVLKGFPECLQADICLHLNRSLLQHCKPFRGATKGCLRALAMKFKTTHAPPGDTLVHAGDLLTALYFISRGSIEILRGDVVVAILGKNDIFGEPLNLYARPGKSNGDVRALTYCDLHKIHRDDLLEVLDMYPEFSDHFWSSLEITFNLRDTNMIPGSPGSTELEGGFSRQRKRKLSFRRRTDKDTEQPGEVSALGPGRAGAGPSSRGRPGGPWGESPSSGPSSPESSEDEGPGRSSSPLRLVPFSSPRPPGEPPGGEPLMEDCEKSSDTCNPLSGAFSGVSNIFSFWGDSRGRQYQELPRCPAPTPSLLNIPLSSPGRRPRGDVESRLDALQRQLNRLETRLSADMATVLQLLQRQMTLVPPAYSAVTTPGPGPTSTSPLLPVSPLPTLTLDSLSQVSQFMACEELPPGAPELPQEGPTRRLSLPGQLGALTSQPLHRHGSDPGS", "experiment": "primary screen, population patch clamp on CHO cells stably expressing hERG", "units": {"hERG current change (%, negative = inhibition) at 1uM": "%"}, "values": [{"molecule": "CCOCCn1c(CN2CCN(CCO)CC2)nc2c1c(=O)n(C)c(=O)n2C", "hERG current change (%, negative = inhibition) at 1uM": 14.3}, {"molecule": "COC(=O)c1ccc(CSc2nnc(SCc3ccc(C(=O)OC)o3)s2)o1", "hERG current change (%, negative = inhibition) at 1uM": 3.46}, {"molecule": "Cc1cc2cc(C#N)c(SCC(=O)Nc3nonc3C)nc2cc1C", "hERG current change (%, negative = inhibition) at 1uM": 6.61}, {"molecule": "COc1ccc(C(=O)NC(=O)Nc2ncccc2C)cc1", "hERG current change (%, negative = inhibition) at 1uM": 8.92}, {"molecule": "CS(=O)(=O)Cc1cc(N2CCCC2)nc(-c2ccccc2)n1", "hERG current change (%, negative = inhibition) at 1uM": 8.23}, {"molecule": "O=C1OC(N2CCN(C/C=C/c3ccccc3)CC2)c2ccccc21", "note": "(centres unmarked)", "hERG current change (%, negative = inhibition) at 1uM": 13.2}, {"molecule": "O=C(Nc1ccccc1OC(F)F)c1ccc(-n2cncn2)c([N+](=O)[O-])c1", "hERG current change (%, negative = inhibition) at 1uM": 13}, {"molecule": "COc1cccc(OCCOc2ccc(/C=C3/SC(=S)NC3=O)cc2)c1", "hERG current change (%, negative = inhibition) at 1uM": 18}, {"molecule": "NCCOc1cnn(-c2ccccc2Cl)c(=O)c1Cl", "hERG current change (%, negative = inhibition) at 1uM": 9.96}, {"molecule": "CCc1[nH]nc(C(=O)N2CCCC(CNS(=O)(=O)c3cccs3)C2)c1C", "note": "(centres unmarked)", "hERG current change (%, negative = inhibition) at 1uM": 12.6}, {"molecule": "CN(CC(=O)Nc1ccc(F)c(F)c1F)C(=O)c1ccc(-n2cncn2)c([N+](=O)[O-])c1", "hERG current change (%, negative = inhibition) at 1uM": 8.89}, {"molecule": "O=C1c2ccccc2NC(c2ccncc2)N1c1ccccn1", "note": "(centres unmarked)", "hERG current change (%, negative = inhibition) at 1uM": -2.04}, {"molecule": "COC(=O)C1CCN(S(=O)(=O)c2ccc(OC)cc2)CC1", "hERG current change (%, negative = inhibition) at 1uM": 5.02}, {"molecule": "Oc1ccccc1/C=N/Nc1cc(N2CCCC2)nc(N2CCCC2)n1", "hERG current change (%, negative = inhibition) at 1uM": 7.88}, {"molecule": "O=c1[nH]c(C2CCN(S(=O)(=O)c3ccc(C(F)(F)F)cc3)CC2)nc2c1nnn2Cc1ccccc1", "hERG current change (%, negative = inhibition) at 1uM": 16.6}, {"molecule": "Cc1ccccc1CN1CCN(C(=O)c2ccc(S(=O)(=O)NCc3ccco3)cc2)CC1", "hERG current change (%, negative = inhibition) at 1uM": 0.221}, {"molecule": "N#Cc1c(-c2ccc(F)cc2)cc(-c2cccnc2)nc1N", "hERG current change (%, negative = inhibition) at 1uM": 9.44}, {"molecule": "Cc1cc(NC(=O)c2coc(=O)c(Br)c2)ccc1C(C)C", "hERG current change (%, negative = inhibition) at 1uM": 9.1}, {"molecule": "COC(=O)N/N=C/c1ccccc1Cl", "hERG current change (%, negative = inhibition) at 1uM": 15}, {"molecule": "CCCCN1C(=O)C(=O)N(CC(=O)Nc2cccc(C(C)=O)c2)C1=O", "hERG current change (%, negative = inhibition) at 1uM": 4.58}, {"molecule": "O=C(Nc1ccc(C(=O)N2CCCCC2)cc1)c1cccs1", "hERG current change (%, negative = inhibition) at 1uM": 10.3}, {"molecule": "COc1ccc(-c2nn(CCC(=O)O)cc2/C=C2\\SC(N)=NC2=O)cc1", "hERG current change (%, negative = inhibition) at 1uM": 7.09}, {"molecule": "CC(C)N(Cc1ccccc1)C(=S)Nc1ccccc1F", "hERG current change (%, negative = inhibition) at 1uM": 13.1}, {"molecule": "CCSc1ncc(Cl)c(C(=O)Nc2ccccc2Cl)n1", "hERG current change (%, negative = inhibition) at 1uM": 13.3}, {"molecule": "CCOC(=O)c1c(C)[nH]c(C)c1S(=O)(=O)N(C)CC(=O)Nc1cccc(C)c1", "hERG current change (%, negative = inhibition) at 1uM": 10.4}, {"molecule": "Cc1ccc(/C=N/Nc2ncnc3nc[nH]c23)cc1", "hERG current change (%, negative = inhibition) at 1uM": -7.53}, {"molecule": "CC(C(=O)NC1CCCC1)N1C(=O)c2cccc3cccc1c23", "note": "(centres unmarked)", "hERG current change (%, negative = inhibition) at 1uM": 9.89}, {"molecule": "O=C(N/N=C/C1CC=CCC1)c1cc2ccccc2cc1O", "note": "(centres unmarked)", "hERG current change (%, negative = inhibition) at 1uM": 9.64}, {"molecule": "Cc1ccc(S(=O)(=O)N2CCCCC2)cc1C(=O)N1CCCCCC1", "hERG current change (%, negative = inhibition) at 1uM": 0.463}, {"molecule": "CCSc1nnc(-c2ccc(S(=O)(=O)N3CCOCC3)cc2)n1CC1CCCO1", "note": "(centres unmarked)", "hERG current change (%, negative = inhibition) at 1uM": 8.74}, {"molecule": "CS(=O)(=O)c1ccc(Cl)c(C(=O)NCC2CCCCC2)c1", "hERG current change (%, negative = inhibition) at 1uM": 5.93}, {"molecule": "Cc1nc(NC(=O)c2cc(-n3cnnc3)ccc2Cl)ccc1Br", "hERG current change (%, negative = inhibition) at 1uM": -3.11}, {"molecule": "COc1cccc(/C=C/C(=O)NNC(=O)c2cc(C)oc2C)c1", "hERG current change (%, negative = inhibition) at 1uM": 12.3}, {"molecule": "O=c1[nH]c2ccccc2nc1NCc1ccccc1", "hERG current change (%, negative = inhibition) at 1uM": 12.3}, {"molecule": "Cc1c(C(=O)Nc2nc3ccccc3[nH]2)oc2c(Cl)cccc12", "hERG current change (%, negative = inhibition) at 1uM": 15.5}, {"molecule": "COc1ccccc1/C=C/C=C1\\Oc2c(ccc(O)c2CN(C)C)C1=O", "hERG current change (%, negative = inhibition) at 1uM": -0.312}, {"molecule": "O=[N+]([O-])c1ccc(S(=O)(=O)NCC2CC3CCC2C3)cc1", "note": "(centres unmarked)", "hERG current change (%, negative = inhibition) at 1uM": 7.7}, {"molecule": "CCOc1ccc(CCNC(=O)CS(=O)Cc2nc(-c3ccc(OC)cc3)oc2C)cc1OCC", "note": "(centres unmarked)", "hERG current change (%, negative = inhibition) at 1uM": 11.8}, {"molecule": "O=C(COc1ccc(Br)cc1Cl)NC1CCN(Cc2ccccc2)CC1", "hERG current change (%, negative = inhibition) at 1uM": -16.4}, {"molecule": "O=c1cc(-c2ccccc2Cl)oc2ccc([N+](=O)[O-])c(O)c12", "hERG current change (%, negative = inhibition) at 1uM": 12.9}, {"molecule": "Cc1[nH]n(-c2ccccc2)c(=O)c1C(C[N+](=O)[O-])c1ccccc1Cl", "note": "(centres unmarked)", "hERG current change (%, negative = inhibition) at 1uM": 16.6}, {"molecule": "O=C1CCc2cc(S(=O)(=O)Nc3ccccc3F)ccc2N1", "hERG current change (%, negative = inhibition) at 1uM": 4.61}, {"molecule": "CCC1(CC)NC(=O)N(CC(=O)OCn2nnc3ccccc3c2=O)C1=O", "hERG current change (%, negative = inhibition) at 1uM": 12.4}, {"molecule": "COC(=O)COc1cc(=O)oc2ccc(NS(=O)(=O)c3ccccc3)cc12", "hERG current change (%, negative = inhibition) at 1uM": 14}]}]}
